Test results taken from the RNAGym collection of RNA variant scans (doi:10.1073/pnas.2313332121).
Variants at the background level are over-represented here.

B1: TPR 5TU (parent)
chain: GGAUCUUCUCGAUCUAACAAAAAAGACAAAUCUGCCACAAAGCUUGAGAGCAUCUUCGGAUGCAGAGGCGGCAGCCUUCGGUGGCGCGAUAGCGCCAACGUUCUCAACUAUGACACGCAAAACGCGUGCUCCGUUGAAUGGAGUUUAUCAUG

Variants of: B1
Assay: polymerase ribozyme fitness, log enrichment relative to wild type (log ratio); higher = more active; in vitro selection for triplet polymerase activity
Summary of the method: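 Mutant libraries were PCR-built and transcribed for each subunit of a heterodimeric triplet polymerase ribozyme and selected for one round in triplicate at −7 °C, frozen, before gel excision of extended constructs and streptavidin-bead capture. Input and output libraries were Illumina-sequenced, keeping genotypes with ≥10 input reads and ≥1 read per output. Fitness is a logarithmic ratio of genotype to wild-type enrichment, in base 2, using inverse-variance-weighted replicate averages.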

Variant	polymerase ribozyme fitness (log ratio)
A22U G25C C57A C76A C93A A137U G152U	≤ -4.2
A22C A66G A73G	≤ -4.2
A23C U44G G81C A91G C93A C103A G117A G152C	≤ -4.2
A22G U90G G133C G141C	≤ -4.2
A22U A24G U33G U101G A107U	≤ -4.2
A22U C35U U45A G48C A89G C95G U139C G140A G141U A142C	≤ -4.2
A23C A24G A26U G50C C54U A113U	≤ -4.2
A22U C38U C57U G94C G126U	-0.0445
A22U C54U U55A	0.0331
A23G U77C G92U C99A G133U G152C	≤ -4.2
A22U G58C G70A G86U U90C A98U A107U C125U	≤ -4.2
A22G A23G G50U A52C C57U G59U C96A C99U G143C	≤ -4.2
A22G A52G G94A C95G C96G G140U U146G	≤ -4.2
A22C U33C G88A A97C C131G	≤ -4.2
A23C C96A C105A U148C	≤ -4.2
A23C G62C C85G U134A U148C	≤ -4.2
A22C C32G C79U C87A C96A C116A U134G	≤ -4.2
A22C A52C G81U	-1.38
A22U G71A G80A G84A G92C A138U	≤ -4.2
A22C A137G	-2.58
A23G G46A U56A C87A G141C	≤ -4.2

Variant	polymerase ribozyme fitness (log ratio)
A22U A28C G81C G100U	≤ -4.2
A22C U53G C93A	≤ -4.2
A22G G50A C76U C87U A110G G143U	≤ -4.2
A23U G50U G67C C72G G83C G117C U148C	≤ -4.2
A23U U56A G88U A91G G126A	≤ -4.2
A23C A39U C43A U56G G62A C87A C99U C103U	≤ -4.2
A23C G62C U82C	≤ -4.2
A22U C35G G62C C63U A64C A107C C116G	≤ -4.2
A22U C69G C72G G83C G133C	≤ -4.2
A23U A29C C51U G68U C72G G94C G136A A147C	≤ -4.2
A22U C27G C76A G83C C87A C103G C105G C131A U148A	≤ -4.2
A23G A37C U44A C57A C87U G88C A119U A147U	≤ -4.2
A22C C38U C69U C85U	-1.31
A23U C35G A73U G81A U109G	≤ -4.2
A23G C76A	-2.49
A22U A39U G133C U148G C149A	≤ -4.2
A23U A26G G42A G84A A97U C116A A120U U146G U148G	≤ -4.2
A23C G48A C93A C103G G141A	≤ -4.2
A23C C27G A60G A97C G124U	≤ -4.2
A22G U33C A64G A73U G88U	≤ -4.2
A22C U77G C132U	≤ -4.2

Variant	polymerase ribozyme fitness (log ratio)
A23U C85U C96G A122G	≤ -4.2
A22G A26C G88U U145G	≤ -4.2
A23C C35G G58A C95A C99A C149U	≤ -4.2
A22U A28U G84U	≤ -4.2
A22U C99G C118G A121G U151G	≤ -4.2
A22C C35A U55A C57U G86U A119U	≤ -4.2
A22G A39G G88A A122U U148A	≤ -4.2
A23U C43G G48A G92A A98G A147U G152C	-3.84
A23C C54U U56A G71A G80C A121G	≤ -4.2
A23U C35U A37C U55G G58C C63A G94A G117A G128A A147U	≤ -4.2
A22U A39G A41G C54A C105A U127G	≤ -4.2
A23C C51A C93U	≤ -4.2
A22U A23C A49G U61A G74U A89C U102G	≤ -4.2
A24C A29C G68C U148G	≤ -4.2
A22C A47C U61A G83C A142C	≤ -4.2
A23G A24U A52G G83C U148G	≤ -4.2
A23U G25C A52C U55A A122C	≤ -4.2
A22U A60U C79A C87A	≤ -4.2
A23U U77G G92U	≤ -4.2
A23G G46C G50C C51U C69A G80U U102A C149G A150C	≤ -4.2
A22U A30C G81A C116G	-3.8

Variant	polymerase ribozyme fitness (log ratio)
A23G C85U C95U G133U	-4
A22C C36A G58C C87A G143U	≤ -4.2
A22G C85U	-0.836
A22G C85G	-2.32
A22C C87U	-0.775
A23U C32U A115G G124C G141C	≤ -4.2
A22U G67U C72G C96A	≤ -4.2
A24C C27A C35G C95G C96G A142C	≤ -4.2
A23C A40U C79G U109C	≤ -4.2
A22G A113C	-2.12
A22C U55G A60G U101A C118G	-0.937
A22G C27U A47U U56G C57G U77A C93A G143A	≤ -4.2
A23C C95U	-4.12
A22U A39U C57U G59A U101G U148C A150C	≤ -4.2
A22U C54U	0.174
A22C G50A C63A C69G A89G U127G G141U A142U	≤ -4.2
A23C C38U G50U U55A U56A G88A A106G G141A U144G	≤ -4.2
A23U G62A C75U G94A C116G	≤ -4.2
A22C A52C U53A G62C G67C C69A A89G C96U A106U C125G U134A	≤ -4.2
A22C G25A U55G G92U G136U	≤ -4.2
A22U U33C A40U U61A A89G U134A A137C	≤ -4.2
